Assay results published in article PMC11494340, “High-throughput screening for small-molecule stabilizers of misfolded glucocerebrosidase in Gaucher disease and Parkinson’s disease” (Proceedings of the National Academy of Sciences of the …, 2024).
Where a name gives a salt, the structure may show the parent alone.

Target: T1, HiBiT-GCase-L444P (Homo sapiens, UniProt P04062, L483P)
T1 sequence (P04062 40-536 L483P): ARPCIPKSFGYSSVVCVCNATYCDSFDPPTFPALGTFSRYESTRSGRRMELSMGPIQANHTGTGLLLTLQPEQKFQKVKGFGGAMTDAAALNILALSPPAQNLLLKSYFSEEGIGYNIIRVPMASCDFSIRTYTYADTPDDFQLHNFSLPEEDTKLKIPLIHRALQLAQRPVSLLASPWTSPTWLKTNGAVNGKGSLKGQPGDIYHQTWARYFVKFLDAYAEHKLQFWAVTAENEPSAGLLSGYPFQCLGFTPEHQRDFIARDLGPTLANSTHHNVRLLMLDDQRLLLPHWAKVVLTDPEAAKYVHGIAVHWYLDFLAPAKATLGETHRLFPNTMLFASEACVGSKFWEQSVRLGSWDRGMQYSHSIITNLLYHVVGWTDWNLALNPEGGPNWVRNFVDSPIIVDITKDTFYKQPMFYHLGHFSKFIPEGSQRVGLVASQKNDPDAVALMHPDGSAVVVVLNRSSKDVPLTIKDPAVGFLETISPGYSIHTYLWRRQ
Design: AUC: unit not given beside the values
Conditions: follow-up screen, 24 h; for Efficacy: relative to DMSO control; for CC-v2: qHTS curve class

Structure (SMILES) | AC50 [µM] | AUC | Efficacy | CC-v2
O=C(NO)c1cnc(N2CCN(S(=O)(=O)c3ccc4ccccc4c3)CC2)nc1 [NCGC00351481-03, JNJ16241199] | 1.5 | 583.1 | 335 | 1.1
Cc1sc2c(c1C)C(c1ccc(Cl)cc1)=N[C@@H](CC(=O)Nc1ccc(O)cc1)c1nnc(C)n1-2 [NCGC00356067-04, OTX015] | 1.7 | 165.2 | – | 1.1
O=C(NCCN1CCC(n2c(=O)[nH]c3ccccc32)CC1)c1cc2cc(F)ccc2[nH]1 [NCGC00370807-05, FIPI hydrochloride] | 9.4 | 7.8 | 65 | 1.2
C=Cc1cc(O)cc2nc(-c3ccc(O)c(F)c3)oc12 [NCGC00370919-02, Prinaberel] | 29.8 | 4.3 | – | 1.2
COc1ccc(CNC(=O)Nc2ncc([N+](=O)[O-])s2)cc1 [NCGC00371125-13, AR-A014418] | 47.3 | 123.3 | 230 | 1.1
O=C(N[C@H](Cc1cscn1)C(=O)N[C@@H](CC1CCCCC1)[C@@H](O)[C@@H](O)C1CC1)c1nc2ccccc2[nH]1 [NCGC00378583-01, Ro 0437626] | 6 | 193.4 | 207 | 1.1
COC(=O)N[C@@H](C)CNc1nccc(-c2cn(C(C)C)nc2-c2cc(Cl)cc(NS(C)(=O)=O)c2F)n1 [NCGC00378599-02, Encorafenib] | 42.1 | -31.7 | – | 1.2
Cc1[nH]c(/C=C2\C(=O)Nc3ccc(F)cc32)c(C)c1C(=O)NCCN1CCCC1 [NCGC00378902-09, Toceranib] | 31.6 | 39.8 | – | 2.3
O=C(NC1CCC1)c1ccc(C#Cc2cccc(F)c2)nc1 [NCGC00379106-01, VU 0360172 hydrochloride] | 10.6 | 31.2 | 47 | 1.2
Cc1cc(C)cc(C(=O)NOCCCCCC(=O)NO)c1 [NCGC00379210-03, LMK-235] | 0.473 | 739.7 | 333 | 1.1
C[C@@H]1O[C@@H](OC2CCC3(C=O)C(CCC4C3CCC3(C)C(C5=CC(=O)OC5)C(O)CC43O)C2)[C@H](O)[C@H](O)[C@H]1O[C@@H]1O[C@H](CO)[C@@H](O)[C@H](O)[C@H]1O (stereo partly drawn) [NCGC00380658-01] | 2.5 | 104.8 | 93 | 1.1
C/C=C(\C)C(=O)OC1C(C)C2(O)C3C=C(C)C(=O)C3CC(CO)=CC2C2C(C)(C)C12OC(C)=O (stereo not drawn) [NCGC00380717-01] | 0.146 | 104.6 | 76 | 1.2
CC1CCC2C(=CCC(O)C2(C)C)C1(C)Cc1c(O)cc(CO)c(C=O)c1O (stereo not drawn) [NCGC00380764-01] | 8.2 | 40.6 | 90 | 1.1
COC1C(O)C(OC2CCC3(C)C(CCC45CCC6C7(COC(=O)C7)OC4(O)C6(C)CCC35)C2)OC(C)C1OC1OC(CO)C(OC2OC(CO)C(O)C(O)C2O)C(O)C1O (stereo not drawn) [NCGC00380855-01] | 8 | 104.1 | 174 | 1.1
COc1cc2c(cc1O)C(c1ccc(O)cc1)C(C)C(C)C2 (stereo not drawn) [NCGC00380925-01] | 29.8 | 103.5 | 175 | 1.1
CC(=O)C1=CCC2C3CC=C4CC(O)CC(O)C4(C)C3C(O)CC12C (stereo not drawn) [NCGC00380953-01] | 29.2 | 62.8 | 244 | 1.1
CO[C@H]1[C@@H](O)[C@H](O[C@H]2CC[C@@]3(C)C(CCC4C3CC[C@]35COC6(COC(=O)C6)C3CCC45O)C2)O[C@@H](C)[C@@H]1OC1OC(CO)C(OC2OC(CO)C(O)C(O)C2O)C(O)C1O (stereo partly drawn) [NCGC00381292-01] | 4.5 | 238.6 | 306 | 2.1
C[C@]12CC[C@H](O[C@@H]3O[C@H](CO)[C@@H](O)[C@H](O)[C@H]3O)CC1=CC[C@@H]1C2CC[C@]2(C)[C@@H](C3=CC(=O)OC3)CC[C@]12O (stereo partly drawn) [NCGC00381297-01] | 4.4 | 126.4 | 183 | 1.1
CN(C)Cc1ccc(S(=O)(=O)n2ccc(/C=C/C(=O)NO)c2)cc1 [NCGC00381559-02, Resminostat] | 4.2 | 526.6 | – | 1.1

Structure (SMILES) | AC50 [µM] | AUC | Efficacy | CC-v2
O=C(NO)c1ccc(CC(=O)N(CCO)c2ccccc2)cc1 [NCGC00384200-02, HPOB] | 26.6 | 109.7 | 272 | 1.1
CC12CCC(OC3OC(CO)C(O)C(O)C3OC3OC(CO)C(O)C(O)C3O)CC1CCC1C2CCC2(C)/C(=C3/COC(=O)C3)CCC12O (stereo not drawn) [NCGC00384525-01] | 4.4 | 248.3 | 212 | 1.1
CC1(C)CCCC2(C)C1CC(=O)C13CC(CCC12)C(O)(CO)C3 (stereo not drawn) [NCGC00384807-01] | 5.2 | 35.4 | 71 | 1.2
C[C@]12CC[C@H](O[C@@H]3O[C@H](CO)[C@@H](O)[C@H](O)[C@H]3O[C@@H]3O[C@H](CO)[C@@H](O)[C@H](O)[C@H]3O)CC1=CC[C@@H]1[C@@H]2CC[C@]2(C)[C@@H](C3=CC(=O)OC3)CC[C@]12O [NCGC00385195-01] | 7 | 74.1 | 127 | 1.1
COc1ccc(CC2C(=O)NC(C)C(=O)N(C)C3Cc4ccc(cc4)Oc4cc(ccc4OC4OC(CO)C(O)C(O)C4O)CC(C(=O)NC(C)C(=O)NC(CCC(=O)O)C(=O)N2C)N(C)C3=O)cc1 (stereo not drawn) [NCGC00385295-01] | 11.3 | 30.6 | 55 | 1.2
COC1CC(O[C@H]2CC[C@]3(C)C4CC[C@]5(C)[C@@H](C6=CC(=O)OC6)[C@@H](OC(C)=O)C[C@]5(O)C4CC[C@@H]3C2)OC(C)C1O[C@@H]1O[C@H](CO)[C@@H](O)[C@H](O)[C@H]1O (stereo partly drawn) [NCGC00385413-01] | 0.125 | 75.1 | 45 | 1.4
CCC(CC)C(=O)OC12C(OC(=O)C(C)C)C(C)C3(O)C(C=C(CO)CC4(O)C(=O)C(C)=CC43)C1C2(C)C (stereo not drawn) [NCGC00385607-01] | 0.0206 | 147.1 | 53 | 1.2
C/C=C(\C)C(=O)OC1C(C)C2(O)C(C=C(CO)CC3(O)C(=O)C(C)=CC32)C2C(C)(C)C12OC(C)=O (stereo not drawn) [NCGC00385645-01] | 0.183 | 203.0 | 70 | 1.2
C=C1C(=O)O[C@@H]2[C@H]1CCC(C)=C1CCC(=O)O[C@]12C [NCGC00385924-01] | 18.8 | 18.8 | 71 | 2.2
C=CC(=O)Nc1ccc2ncnc(Nc3cccc(Br)c3)c2c1 [NCGC00386260-01, PD-168393] | 14.9 | 30.6 | 67 | 1.2
CC(=O)N1CCN(CCOc2ccc(C3CCN(C4=Nn5c(nnc5C(F)(F)F)CC4)CC3)cc2)CC1 [NCGC00386284-02, AZD-3514] | 37.6 | 14.1 | – | 1.1
Cn1nccc1Nc1nccc(-c2ccn([C@H](CO)c3ccc(Cl)c(F)c3)c(=O)c2)n1 [NCGC00386401-02, Ravoxertinib] | 29.8 | 43.0 | – | 1.1
C=CC(=O)N1CCN(C(=O)CNc2cc(I)c(Cl)cc2O)CC1 [NCGC00386405-01, K-Ras(G12C) inhibitor 12] | 26.6 | 134.6 | 180 | 2.1
C=CC(=O)N1CCC(Oc2cc3c(Nc4ccc(Cl)c(Cl)c4F)ncnc3cc2OC)CC1 [NCGC00386427-01, Poziotinib] | 5.3 | 59.0 | – | 1.2
CC(C)(O)c1ccc2c(c1)ncn2-c1cccc(-c2ccccc2C#N)c1 [NCGC00386556-02, NS-11394] | 53 | 91.0 | 100 | 1.1
O=C(NCCCn1ccnc1)c1cc(-c2ccco2)on1 [NCGC00386690-01, SKL 2001] | 23.7 | 184.5 | 380 | 1.1
O=C(NCCCNC(=O)c1ccc[nH]c1=O)c1cc(-c2ccccc2)on1 [NCGC00386818-01, ML327] | 6 | 504.8 | 436 | 1.1
CC(=O)SCC(=O)c1ccc(NS(=O)(=O)c2ccc(OCCCN(C)C)cc2)nc1 [NCGC00387131-01, KD 5170] | 0.376 | 952.7 | 402 | 1.1
Cc1cc(Nc2nc(-c3ccccc3)nc3ccccc23)n[nH]1 [NCGC00387776-01, GSK-3 inhibitor XIII] | 11.9 | 74.8 | 142 | 1.1
